Test results as given in article PMC6919601, “Identification of Plasmodium dipeptidyl aminopeptidase allosteric inhibitors by high throughput screening” (PLoS ONE, 2019).
Screen size: about 110,000 compounds; about 230 (0.21%) showed an effect of 50% or more. The list shows a part of the results.

The compounds below were run against DPAP1 (Plasmodium falciparum, UniProt Q8IIJ9) (assay: primary screen, percent inhibition; read by cleavage of a fluorogenic dipeptide substrate; higher = more effect of the substance).
Chain of DPAP1 (Q8IIJ9 whole entry, looked up): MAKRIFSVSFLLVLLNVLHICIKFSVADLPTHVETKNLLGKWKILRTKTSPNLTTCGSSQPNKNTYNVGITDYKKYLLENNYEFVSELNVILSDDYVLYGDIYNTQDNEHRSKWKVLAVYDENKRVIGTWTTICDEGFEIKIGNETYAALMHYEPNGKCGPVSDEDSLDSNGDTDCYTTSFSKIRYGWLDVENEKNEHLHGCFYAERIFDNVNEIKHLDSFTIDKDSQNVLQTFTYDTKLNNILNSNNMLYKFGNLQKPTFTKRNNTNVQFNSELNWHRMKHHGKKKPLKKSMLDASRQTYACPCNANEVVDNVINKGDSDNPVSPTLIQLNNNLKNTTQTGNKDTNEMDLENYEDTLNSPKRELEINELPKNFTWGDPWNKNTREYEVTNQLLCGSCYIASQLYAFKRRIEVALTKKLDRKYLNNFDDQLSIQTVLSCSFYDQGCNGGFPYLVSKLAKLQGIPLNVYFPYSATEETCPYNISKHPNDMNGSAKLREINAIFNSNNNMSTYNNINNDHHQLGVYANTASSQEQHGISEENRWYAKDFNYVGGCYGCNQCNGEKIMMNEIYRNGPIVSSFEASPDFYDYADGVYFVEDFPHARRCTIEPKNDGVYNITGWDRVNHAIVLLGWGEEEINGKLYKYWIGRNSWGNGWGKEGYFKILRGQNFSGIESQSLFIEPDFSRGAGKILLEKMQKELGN
Design: species or system P. falciparum D10 trophozoite lysates; single well
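Also: 30 min substrate incubation versus DMSO and 10 µM JCP410 controls.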

First: Cc1ccc(NS(=O)(=O)c2ccc(Cl)cc2)cc1Cl
Second: Cc1ccc(S(=O)(=O)NCCc2ccc(S(N)(=O)=O)cc2)cc1
The “% Inhibition @ 10 uM” value of the first is lower: -1.48% for the first, -0.968% for the second.

First: CC1=C(c2ccc(C)cc2)S(=O)(=O)N=C1NCc1cccc(Cl)c1
Second: O=C(Cn1nnnc1-c1ccc(Cl)cc1)NCc1ccccc1C(F)(F)F
The “% Inhibition @ 10 uM” value of the first is higher: 0.623% for the first, -2.84% for the second.

Going from `Nc1nnc(-c2nonc2N)s1` to `CCC1(C)Cc2c(sc3nc(S)nc(N)c23)CO1` (centres unmarked), the “% Inhibition @ 10 uM” value rises from 1.72% to 62.9%.

Going from `CCC1(c2ccccc2)C(=O)c2ccccc2C1=O` to `CCC(C)NC(=O)C1c2ccccc2C(=O)N(C)C1c1c[nH]c2ccccc12` (centres unmarked), the “% Inhibition @ 10 uM” value falls from 4.16% to -5.88%.

Compared with `O=C(NC1(C(F)(F)F)C(=O)Nc2c1c(=O)[nH]c(=O)n2-c1ccc(F)cc1)c1cccc(Cl)c1` (centres unmarked), `COc1cc(/C=C2\SC(=O)N(Cc3ccc(F)cc3)C2=O)ccc1O` is lower in “% Inhibition @ 10 uM” value: 2.49% for the first, -3.87% for the second.

First: CCOC(=O)N1CCC(n2c(SCc3ccccc3Cl)nc3ccsc3c2=O)CC1
Second: CCOC(=O)c1c(C)c(-c2ccccc2)n(CC(=O)N2CCN(Cc3ccccc3)CC2)c1C
The “% Inhibition @ 10 uM” value of the first is lower: -3.28% for the first, 0.0579% for the second.

First: O=C1C=CC(=NS(=O)(=O)c2cccs2)C=C1
Second: CC1=C(Cl)C(=O)C(C(C)C)=C/C1=N\S(=O)(=O)c1ccccc1
The “% Inhibition @ 10 uM” value of the first is higher: 6.64% for the first, -2.87% for the second.

Compared with `CC(C)CCN(C)C1CCN(S(=O)(=O)c2cccc(C(F)(F)F)c2)CC1`, `CCN(CC)S(=O)(=O)N1CCC(C(=O)NC(C)CCc2ccccc2)CC1` (centres unmarked) is lower in “% Inhibition @ 10 uM” value: 3.66% for the first, 1.16% for the second.

First: CC(C)(C)C(=O)/N=C1\SC2CS(=O)(=O)CC2N1Cc1ccc(Cl)cc1 (centres unmarked)
Second: O=C(NCc1ccc(Cl)cc1)c1csc2c1CCCC2
The “% Inhibition @ 10 uM” value of the first is higher: -2.92% for the first, -5.05% for the second.

Going from `Cc1c(CC(=O)NCc2ccco2)c(=O)oc2cc(O)c(Cl)cc12` to `COc1cc(NC(=O)c2cccc(C)c2)c(OC)cc1Cl`, the “% Inhibition @ 10 uM” value falls from -0.808% to -1.93%.

Compared with `Cn1nc(-c2ccc(Cl)cc2)c2cc(C(=O)N3CCN(Cc4ccc5c(c4)OCO5)CC3)sc21`, `COc1cccc(CN2CCN(Cc3ccncc3)CC2)c1OC` is higher in “% Inhibition @ 10 uM” value: 3.77% for the first, 8.09% for the second.

Compared with `CCNCC(=O)N1c2ccccc2CCc2ccc(NC(=O)OCC)cc21`, `CCc1cc(C(=O)O)c(NC(=O)c2ccccc2)s1` is higher in “% Inhibition @ 10 uM” value: 3.06% for the first, 3.61% for the second.

Compared with `O=C(NCc1ccccc1)c1csc2c1CCCC2`, `O=C(CSc1ncnc2sc3c(c12)CCC3)Nc1ccccc1` is lower in “% Inhibition @ 10 uM” value: 3.54% for the first, -4.01% for the second.

Going from `Cn1c(=O)c2c(nc3n(-c4ccccc4)c(-c4ccccc4)cn23)n(C)c1=O` to `COc1ccccc1-c1cc(-c2ccccc2)nc(SCC(=O)c2ccccc2)c1C#N`, the “% Inhibition @ 10 uM” value falls from 2.43% to 2.36%.

Compared with `CN1CCc2nc(SCc3ccccc3Br)c(C#N)cc2C1`, `Cc1cc(C)c(C#N)c(SCC(=O)Nc2cccc(C)c2C)n1` is higher in “% Inhibition @ 10 uM” value: -0.864% for the first, 1.01% for the second.

Going from `COCCNc1nc2c(S(=O)(=O)c3ccccc3)nnn2c2ccsc12` to `O=S(=O)(Cc1nn[nH]n1)c1ccccc1`, the “% Inhibition @ 10 uM” value rises from -0.256% to 2%.

Going from `Cn1cc(CCC(=O)NCc2ccccn2)c2ccccc21` to `CCN(CC)C(=O)Cn1c2ccccc2c2cnnc(O)c21`, the “% Inhibition @ 10 uM” value falls from 3.28% to 1.38%.

First: Cc1nnc(NC(=O)CSc2nnc(CNC(=O)c3cccs3)o2)s1
Second: Cc1nc2ccc(S(=O)(=O)NCC(=O)NCCN3CCCCC3C)cc2s1 (centres unmarked)
The “% Inhibition @ 10 uM” value of the first is lower: -3.39% for the first, 2.37% for the second.

First: COC(=O)C1=CN(Cc2ccc(F)cc2)C=C(C(=O)OC)C1c1ccc(O)cc1
Second: Cc1ccc(OCC(=O)Nc2ccc(F)cc2)c(C)c1
The “% Inhibition @ 10 uM” value of the first is higher: 1.86% for the first, -6.74% for the second.

Going from `O=[N+]([O-])c1ccc(N2CCN(C3Cc4ccccc4C3)CC2)cc1` to `COc1ccc(-c2nnc3n2C2(CCCCC2)Cc2ccccc2-3)cc1`, the “% Inhibition @ 10 uM” value rises from 1.43% to 2.22%.

Going from `COc1ccc2c(c1)C1=NN(C(C)=O)C(c3ccc([N+](=O)[O-])cc3)C1CC2` (centres unmarked) to `COc1cccc2c1CCC(NC(C)=O)C2=O` (centres unmarked), the “% Inhibition @ 10 uM” value falls from 1.63% to -2.76%.

First: O=C(Nc1nc2ccccc2n1CCN1CCOCC1)c1ccccc1F
Second: Cc1cc(C)cc(OCC(=O)Nc2ccc(CN3CCOCC3)cc2)c1
The “% Inhibition @ 10 uM” value of the first is lower: -6.06% for the first, -4.97% for the second.

First: Brc1ccc(Oc2ncnc3sc4c(c23)CCCC4)cc1
Second: Cc1cc(C)c(C)c(S(=O)(=O)NCc2ccc(C(=O)N3CCCC3)cc2)c1C
The “% Inhibition @ 10 uM” value of the first is higher: -2.28% for the first, -3.09% for the second.

Going from `Cc1ccc2[nH]c(C3=C(N)N(CCCN4CCOCC4)CC3=O)nc2c1` to `COC(=O)c1ccc(CN2CCOCC2)cc1`, the “% Inhibition @ 10 uM” value rises from -2.99% to 1.57%.

Going from `Cc1ccc(C(=O)Nc2ccccc2)cc1S(=O)(=O)N1CCCCCC1` to `CC(C)(O)C#Cc1ccc(C(=O)N2CCC(Cc3ccccc3)CC2)cc1`, the “% Inhibition @ 10 uM” value rises from -6.65% to -4.93%.

Going from `Cc1ccnc(NC2c3ccccc3C(=O)N2Cc2ccccc2Cl)c1` (centres unmarked) to `O=C(Cc1ccccc1)n1nc(-c2ccco2)nc1NCc1ccccc1Cl`, the “% Inhibition @ 10 uM” value falls from 4.01% to -6.98%.

Compared with `NC(=O)c1ccccc1NC(=O)c1ccc(Cl)cc1`, `Cc1ccc(NC(=O)c2ccc(C(C)(C)C)cc2)nc1` is lower in “% Inhibition @ 10 uM” value: -3.24% for the first, -3.92% for the second.

First: COc1ccc(C(=O)N/C(=C\c2ccc3c(c2)OCO3)C(=O)NCCO)cc1
Second: CCCCOc1ccc(C2C(C#N)=C(N)Oc3c2c(=O)oc2ccccc32)cc1OC (centres unmarked)
The “% Inhibition @ 10 uM” value of the first is lower: -2.68% for the first, 10.8% for the second.

Going from `Clc1ccc(OCc2nc3ccccc3[nH]2)c(Cl)c1` to `O=C(O)C1CSC(c2ccccc2Cl)N1C(=O)c1cccc(Cl)c1` (centres unmarked), the “% Inhibition @ 10 uM” value rises from -1.69% to 2.79%.

First: O=C1CC(Cc2ccccc2)NC(NC(=O)c2ccccc2)=N1 (centres unmarked)
Second: COc1cccc(OCC(O)CN2CCC(Cc3ccccc3)CC2)c1 (centres unmarked)
The “% Inhibition @ 10 uM” value of the first is lower: 1.02% for the first, 4.67% for the second.

Going from `COc1cc2c(cc1OC)C1CC(=O)C(CC(C)C)CN1CC2` (centres unmarked) to `COc1cccc(C2c3c(oc4ccccc4c3=O)C(=O)N2Cc2ccc(C)cc2)c1` (centres unmarked), the “% Inhibition @ 10 uM” value rises from -1.82% to 6.52%.

Going from `O=C(COc1ccc(Cl)cc1)NCCC12CC3CC(CC(C3)C1)C2` to `CC1(C)CC(=O)C2=C(C1)N(c1nc[nH]n1)C(N)=C(C#N)C2c1ccsc1` (centres unmarked), the “% Inhibition @ 10 uM” value falls from 4.85% to -0.99%.

`CCCCN(CCCC)c1nc(O)nc2[nH]cnc12` was tested, and the “% Inhibition @ 10 uM” value was -0.636%.
